Experimental data published in PubChem BioAssay AID1465 (SRMLSC, 2008).
The campaign covered roughly 220,000 compounds. About 160 (0.073%) were called active. The shares of active, inactive and inconclusive entries below differ from those in the screen.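 Rule for the calls: active = fold induction of absorbance versus untreated yeast above a set limit, then at least 30% activation at any dose in follow-up; inconclusive = repeats straddling the limit, or above it without dose testing; inactive = fold induction below the set limit.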

Assay: mitochondrial function rescue without frataxin homolog – Friedreich's ataxia, plus single-dose screen, dose response (AID 1465)
Settings: S. cerevisiae Yfh1-off respiration, WST-1 reduction, 72 h; at 50 µM; active compounds read high

Structure (SMILES)	fold induction
CN1CCN(c2ccc([N+](=O)[O-])c(N/N=C3\CN4CCC3CC4)c2)CC1	inconclusive: 1.36
c1cncc(C2Nc3cccc4cccc(c34)N2)c1	inconclusive: 1.52
CN1C(=O)C(=Cc2ccc(N3CCCCC3)o2)C(=O)N(C)C1=S	inconclusive: 1.33
CN1c2ccc([N+](=O)[O-])cc2CC2(C(=O)NC(=O)N(c3ccccc3)C2=O)C1c1ccccc1 (centres undefined)	inconclusive: 1.34
O=C(NC(c1ccc(Cl)cc1)P(=O)(Oc1ccccc1)Oc1ccccc1)OCc1ccccc1 (centres undefined)	inconclusive: 1.24
Cc1cc2c(C(C)C)c(O)c(O)c(C=O)c2c(O)c1-c1c(C)cc2c(C(C)C)c(O)c(O)c(C=O)c2c1O	inconclusive: 1.42
CC1CN2c3ccc([N+](=O)[O-])cc3CC3(C(=O)N(C)C(=O)N(C)C3=O)C2C(C)O1 (centres undefined)	inconclusive: 1.33
COc1ccc(N=Nc2c(O)[nH]c(=S)[nH]c2=O)cc1	inconclusive: 1.34
CNc1ccc2oc(C[C@H]3O[C@@]4(CC[C@H]3C)O[C@H]([C@H](C)C(=O)c3ccc[nH]3)[C@H](C)C[C@H]4C)nc2c1C(=O)O	inconclusive: 1.32
CCCN1CCc2cccc3c2[C@H]1Cc1ccc(O)c(O)c1-3	inconclusive: 1.33
COC(=O)c1ccc(C(C(=O)NC2CCCCC2)N(CCN2CCOCC2)C(=O)Cc2cccs2)cc1 (centres undefined)	inconclusive: 1.33
O=[N+]([O-])c1ccc(N2CCNCC2)cc1NCc1ccco1	inconclusive: 1.33
CCC(CO)Nc1ccc([N+](=O)[O-])c2cccnc12 (centres undefined)	inconclusive: 1.95
O=c1[nH]c(=S)[nH]c(O)c1N=Nc1cc2c(cc1[N+](=O)[O-])OCO2	inconclusive: 1.34
